In all, about 340,000 compounds went through this assay and about 12,000 (3.5%) were called active. The shares of active, inactive and inconclusive entries below differ from those in the screen. Calls come from the whole dose curve; as a rule, active = well fitted inhibition curve with a large enough effect; inconclusive = small, poorly fitted or top-dose-only effect, or another doubt; inactive = no such curve, though single readings can be large or run the other way. No potency is given beside an inconclusive call; the fits are too rough.
Experiment: qHTS Assay for Inhibitors of Hepatitis C Virus (HCV)
Settings: Huh7.5.1 HCVcc-Cre (HCVcc is cell-culture hepatitis C virus) infection, luciferase reporter, 44 h; activity change, negative = inhibition: at 41.8 µM (top of the series)
How it was run: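 Cells seeded at 1,000/well and cultured 4 h, then compounds added followed by HCVcc-Cre virus (~0.5 moi). After 44 h further culture, luciferase substrate was added, plates held 15 min at room temperature, and luminescence read for 15 sec.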
With `CCN(CC)S(=O)(=O)c1ccc(NC(=O)CO/N=C(\N)c2ccccc2)cc1` the Potency was inconclusive [inhibitor, full curve, poor fit].
In the case of `O=C(CSc1nc(-c2cccs2)cc(C(F)(F)F)n1)Nc1cc(OCC(F)(F)C(F)F)cc([N+](=O)[O-])c1`, the Potency is reported as active: 3.55 µM.
In the case of `O=c1[nH]c(=O)n(Cc2ccco2)c2c1C(C(F)(F)F)(C(F)(F)F)N=C(Cc1ccccc1)N2`, the Potency is reported as inconclusive [inhibitor, single point].
With `CCOC(=O)CSc1nc2ccccc2c(=O)n1CC` the “activity change, negative = inhibition” value was inactive: -26.7%.
In the case of `CC(C)Cc1cc(C(=O)N2CCC(N3CCC(C(=O)NC4CC4)CC3)CC2)n[nH]1`, the “activity change, negative = inhibition” value is reported as inactive: 17%.
For `COc1ccc(-c2cc(C(=O)Nc3ccc(C)c(C)c3)no2)cc1`, the “activity change, negative = inhibition” value was inactive: -10.2%.
In the case of `COc1ccc(NC(=O)c2cn(CCC#N)nc2-c2cccc([N+](=O)[O-])c2)cc1`, the Potency is reported as inconclusive [inhibitor, single point].
With `Cc1cc(SCC#N)n2nc(C)c(-c3ccccc3)c2n1` the Potency was inconclusive [inhibitor, single point].
For `O=C(Nc1ccc(Oc2cccc3ccccc23)cc1)c1ccco1`, the Potency was inconclusive [inhibitor, partial curve].
In the case of `CCCCSc1ncc(C(=O)OCC)c(N)n1`, the Potency is reported as inconclusive [inhibitor, single point].
With `CCn1cc(Br)c(C(=O)NC(=S)Nc2ccc(C(=O)OC)cc2)n1` the “activity change, negative = inhibition” value was inactive: 20.5%.
In the case of `CC1CCc2nc(NC(=O)C3COc4ccccc4O3)sc2C1` (configuration not stated), the Potency is reported as inconclusive [inhibitor, full curve].
With `COc1ccc(OC)c(C2=Nn3c(nnc3-c3cccc(OC(C)C)c3)SC2)c1` the Potency was active: 10 µM.
In the case of `Cc1nnc(SC(=O)N2c3ccccc3Sc3ccccc32)s1`, the Potency is reported as inconclusive [inhibitor, partial curve].
In the case of `C/C(=N\Nc1nncc2ccccc12)c1ccc(C(C)(C)C)cc1`, the Potency is reported as active: 2.51 µM.
With `COC(=O)c1c(NC(=O)c2cccc(S(=O)(=O)N3CCN(C)CC3)c2)sc(C)c1C` the Potency was inconclusive [inhibitor, partial curve].
In the case of `COc1cccc(CC(O)CC2c3c(cc4c(c3OC)OCO4)CCN2C)c1` (configuration not stated), the Potency is reported as inconclusive [inhibitor, single point].
With `COc1cccc(C(=O)NC2CC(C)(C)Cc3c2cnn3-c2cccc(F)c2)c1OC` (configuration not stated) the Potency was inconclusive [inhibitor, single point].
For `O=C(Nc1cccnc1)c1cc(-c2ccc(Cl)cc2Cl)on1`, the “activity change, negative = inhibition” value was inactive: 14.9%.
With `COc1ccc(/C=N/NC(=O)c2cccnc2)cc1CN1CCCc2ccccc21` the “activity change, negative = inhibition” value was inactive: -17.1%.
With `O=C(COc1ccccc1[N+](=O)[O-])Nc1ccc(Br)cc1` the “activity change, negative = inhibition” value was inactive: 4.39%.
With `Cc1nc(CNS(=O)(=O)c2ccc3c(c2)CCCC3)cs1` the Potency was inconclusive [inhibitor, full curve].
In the case of `COc1cc2nc(=S)n(CCCN3CCOCC3)c(N)c2cc1OC`, the “activity change, negative = inhibition” value is reported as inactive: 18.2%.
In the case of `O=C(Nc1ccccc1C(=O)NCc1ccccc1)c1ccco1`, the Potency is reported as inconclusive [inhibitor, single point].
For `O=S(=O)(Nc1ncccn1)c1ccc(NC(=S)N2CCN(Cc3ccc(F)cc3Cl)CC2)cc1`, the “activity change, negative = inhibition” value was inactive: 15.8%.
For `N#CC(C#N)=NNc1ccc(S(=O)(=O)N2CCCCC2)cc1`, the Potency was inconclusive [inhibitor, single point].
In the case of `COc1cccc(-c2sc3ccc(OC)cc3c2-c2ccc(OCCN3CCCCC3)cc2)c1`, the Potency is reported as inconclusive [inhibitor, full curve].
In the case of `CCOC(=O)c1cc(-c2ccccc2)sc1NC(=O)CC`, the Potency is reported as inconclusive [inhibitor, partial curve].
In the case of `CON/C=N/C(=S)Nc1ncc(C(F)(F)F)cc1Cl`, the Potency is reported as inconclusive [inhibitor, single point].
With `C=CCc1cc(/C=N/n2cnnc2)cc(OCC)c1O` the Potency was inconclusive [inhibitor, single point].
For `Cc1sc2ncnc(N3CCN(C(=O)c4ccco4)CC3)c2c1C`, the Potency was inconclusive [inhibitor, single point].
In the case of `O=C(N/N=C/c1cc([N+](=O)[O-])ccc1O)c1ccc2c(c1)OCCO2`, the Potency is reported as inconclusive [inhibitor, single point].
With `CC1CCc2c(sc3nc(SCC(=O)NCc4ccco4)nc(N)c23)C1` (configuration not stated) the Potency was inconclusive [inhibitor, single point].
In the case of `COc1ccccc1N1CCN(S(=O)(=O)c2cccs2)CC1`, the “activity change, negative = inhibition” value is reported as inactive: 10.2%.
With `C=CCNc1nc(C(=O)OCC(=O)Nc2c(Cl)cccc2C(F)(F)F)cs1` the “activity change, negative = inhibition” value was inactive: -4.18%.
In the case of `CCOC(=O)c1cc(-c2ccco2)nc2c1c(C)nn2-c1ccccc1`, the “activity change, negative = inhibition” value is reported as inactive: -6.62%.
With `O=C(CSc1ccc2ccccc2n1)N1CCC(c2noc3ccc(F)cc23)CC1` the Potency was inconclusive [inhibitor, single point].
For `Cc1cccc(N2CCN(Cc3nc(-c4cccc(Cl)c4)oc3C)CC2)n1`, the Potency was inconclusive [inhibitor, single point].
In the case of `COc1ccccc1C(=O)NC(=O)CSc1nnnn1C`, the “activity change, negative = inhibition” value is reported as inactive: 4.87%.
For `C[C@@]12C(=O)Nc3cc(Cl)ccc3C(=O)N1[C@H]1c3cc(Br)ccc3OC[C@@H]1[C@@H]2c1ccccc1`, the Potency was active: 10 µM.
For `NC(=O)c1ccccc1NC(=O)c1ccccc1Cl`, the “activity change, negative = inhibition” value was inactive: 14.8%.
With `COc1ccccc1CNC(=O)c1cccc(S(=O)(=O)N(C)c2ccccc2)c1` the Potency was inconclusive [inhibitor, single point].
In the case of `COc1ccc(-c2csc(NC(C)c3nc4cc(Cl)c(Cl)cc4n3CCOCCO)n2)cc1` (configuration not stated), the Potency is reported as inconclusive [inhibitor, partial curve].
For `COC(=O)C1=CN(c2ccc(F)cc2)C=C(C(=O)OC)C1c1cccc(Br)c1`, the Potency was inconclusive [inhibitor, single point].
With `Cc1ccc(C(=O)Nc2ccc3c4c(cccc24)CC3)cc1[N+](=O)[O-]` the Potency was inconclusive [inhibitor, partial curve].
In the case of `COc1ccc(C(=O)Nc2cccc(OC)c2)cc1`, the “activity change, negative = inhibition” value is reported as inactive: -5.05%.
With `CCCc1cc(=O)oc2c3c(cc(OCC(=O)NCCN4CCOCC4)c12)OC(C)(C)CC3` the Potency was inconclusive [inhibitor, single point].
With `O=C(c1ccc(Sc2cccc(Cl)c2)c([N+](=O)[O-])c1)N1CCN(c2ccccn2)CC1` the Potency was inconclusive [inhibitor, single point].
With `CCN(c1cccc(C)c1)S(=O)(=O)c1ccc2c(c1)N(C(C)=O)CCS2` the Potency was active: 11.2 µM.
With `C=C(C)CNC(=S)Nc1cccc2cnccc12` the Potency was inconclusive [inhibitor, single point].
With `Cc1cccc(Nc2nnc(SCc3cn4ccsc4n3)s2)c1` the Potency was inconclusive [inhibitor, partial curve].
For `CC(=O)c1cccc(NC(=O)c2sc3nc4n(c(=O)c3c2C)CCCCC4)c1`, the Potency was inconclusive [inhibitor, single point].
For `Cc1cccc(COCC(Cc2ccccc2)N2CCN(C(=O)c3cccc(Cl)c3)CCC2=O)c1` (configuration not stated), the Potency was inconclusive [inhibitor, single point].
In the case of `Cc1ccc(-c2noc(CN(C)C(=O)Nc3ccc(F)cc3)n2)cc1`, the activity change, negative = inhibition is reported as inconclusive: -40.5% [inhibitor].
In the case of `O=S(=O)(NC1CCCCC1Oc1ccccc1)c1ccc(Cl)cc1` (configuration not stated), the Potency is reported as inconclusive [inhibitor, single point].
With `O=C(/C=C/c1ccc(Cl)cc1)NCCc1ccccc1` the “activity change, negative = inhibition” value was inactive: 3.38%.
For `O=C(Nc1ccc(Cl)cc1)[C@@H]1[C@@H]2C(=O)N(c3ccc(Cl)cc3)C(=O)[C@@H]2[C@H]2C=CC=NN21`, the Potency was inconclusive [inhibitor, full curve].
With `CCOc1ccc(Cl)cc1S(=O)(=O)N1CCC(C(=O)NCc2ccccn2)CC1` the “activity change, negative = inhibition” value was inactive: 11.6%.
For `Nc1nc(Nc2ccccc2)sc1C(=O)c1ccccc1`, the activity change, negative = inhibition was inconclusive: -68.6% [inhibitor].
For `c1ccc(CN2CCC(Nc3nc(-c4cccs4)nc4ccccc34)CC2)cc1`, the Potency was inconclusive [inhibitor, single point].
For `CN(C)CCOC(=O)/C(=C/c1cn(C)c2ccccc12)NC(=O)c1ccccc1`, the Potency was inconclusive [inhibitor, single point].
For `CC(C)(C)NC(=O)NC(=O)CN1CCN(c2ncc(C(F)(F)F)cc2Cl)CC1`, the Potency was inconclusive [inhibitor, single point].
In the case of `Cc1cc(=O)[nH]c(SCC(=O)c2ccccc2)c1C#N`, the “activity change, negative = inhibition” value is reported as inactive: 11.7%.
For `Cc1cccc(OCCSc2cc(C)nc(N)n2)c1`, the “activity change, negative = inhibition” value was inactive: -14.6%.
For `O=[N+]([O-])c1ccc(NN=Cc2cccc([N+](=O)[O-])c2)cc1`, the Potency was inconclusive [inhibitor, partial curve].
For `CCc1ccc(/C=N/NC(=O)c2cc(C)on2)s1`, the “activity change, negative = inhibition” value was inactive: 6.51%.
With `Cc1c(CN(C)C)c2c(n1C)C(=O)c1ccc(Br)cc1-2` the Potency was inconclusive [inhibitor, partial curve].
In the case of `COc1ccc(N2CCN(C(=O)CCc3cc(OC)c(OC)c(OC)c3)CC2)cc1`, the “activity change, negative = inhibition” value is reported as inactive: -15.2%.
For `C/C(=N\NC(=O)c1nn(C)c(C)c1Br)c1cccc(NC(=O)c2ccoc2C)c1`, the Potency was inconclusive [inhibitor, single point].
With `C=CCOc1ccc(C=CC(=O)c2c(O)c(OC)c(OC)c(OC)c2OC)cc1` the Potency was inconclusive [inhibitor, single point].
With `O=C(C(c1ccccc1)c1ccccc1)N1CCCc2ccccc21` the “activity change, negative = inhibition” value was inactive: -17%.
For `c1ccc(-c2ccc3c(c2)c2c4n3CCN=C4CCC2)cc1`, the Potency was inconclusive [inhibitor, single point].

From PubChem BioAssay AID651820 (National Center for Advancing Translational Sciences (NCATS), 2012)
% is set by controls: 0 for no effect and ±100 for the full control effect; potency is the fitted concentration of half-maximal effect; tags give direction and shape of the fitted curve.
